About 10 (0.005%) of roughly 200,000 compounds were called active. The inconclusive results got no clear call from the source; some entries with a clear call stand among them for comparison. The call rests on the fitted dose curve; in most records, active means well fitted inhibition curve with a large enough effect; inconclusive means small, poorly fitted or top-dose-only effect, or effect the other way, or another doubt; inactive means no such curve, though single readings can be large or run the other way. Where the call is inconclusive, the potency comes from a doubtful curve fit.
Each compound was assayed against Lysosomal alpha-glucosidase (Homo sapiens) (UniProt P10253) (assay: qHTS Assay for Inhibitors of Human alpha-Glucosidase as a Potential Chaperone Treatment of Pompe Disease). Conditions: purified human GAA, 4-MU-alpha-glucoside fluorescence; activity change, negative = inhibition: at 76.9 µM (top of the series) unless noted.
Outline: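 Human alpha-glucosidase, 4 nM, pre-mixed with test compounds before 400 uM 4-methylumbelliferyl substrate; 20 min room temperature at pH 5.0. Fluorescence read after pH 10 stop; AC50 values from Hill-equation fits.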
Potency means the concentration at half of the fitted maximal effect; tags describe the fitted curve by direction and shape.
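Wherever activity change, negative = inhibition is given: plate controls were uninhibited enzyme wells for no effect and no-enzyme background for full effect.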

Potency, inconclusive:
COc1ccc(C(=O)NCc2ccccc2OC)c(OC)c1 50.1 µM [inhibitor, single point], OCC1CCN(Cc2nc(Cc3ccccc3Cl)no2)CC1 11.2 µM [inhibitor, single point], CCCCc1cc(=O)oc2cc(OS(C)(=O)=O)ccc12 50.1 µM [activator, single point], Cc1ccc(S(=O)(=O)N(CC(=O)NCCSc2ccccn2)c2cc(C)cc(C)c2)cc1 50.1 µM [inhibitor, single point], O=C(CNC(=O)C1CCCCC1)OCc1cc(=O)oc2ccc3ccccc3c12 8.91 µM [activator, partial curve], Cc1cc(C)c(C#N)c(SCc2nc3ccccc3[nH]2)n1 11.2 µM [inhibitor, single point], COc1ccccc1CNC(=O)C(C)NS(=O)(=O)c1ccc(Br)cc1 (stereo not given) 50.1 µM [inhibitor, single point], N#CC1=C(N)C(C#N)(C#N)[C@H](c2cccnc2)[C@H]2CN(C(=O)OCc3ccccc3)CC=C12 12.6 µM [inhibitor, partial curve, poor fit], COCCNc1nc(-n2nc(C)cc2C)nc2sc3c(c12)CCCC3 28.2 µM [activator, single point], CC1CCc2ccccc2N1C(N)=Nc1ccccc1 (stereo not given) 50.1 µM [inhibitor, single point], Cc1cnc(C(=O)Nc2ccc(F)cc2)cn1 11.2 µM [inhibitor, single point]

Activity change, negative = inhibition, inactive:
O=c1c2cc(N3CCOCC3)ccc2[nH]c(=S)n1CCCN1CCCC1 -5.3%, Oc1ccc(NC(=S)N=Nc2c(O)[nH]c3ccccc23)cc1 -1.94%, CC1(C)Cc2c(c(-c3ccco3)[nH]c(=O)c2C#N)CS1 -1.07%, C/C(=N\Nc1nc2ccccc2[nH]1)c1cc2ccccc2o1 5.63%

Activity change, negative = inhibition, inconclusive:
COCCNC(=O)/C(C#N)=C/c1c(N2CC(C)OC(C)C2)nc2ccccn2c1=O (stereo not given) 9.44% [activator], Cc1ccc2c(c1)N(Cc1cccc(Cl)c1)C(=O)c1cccnc1O2 -18% [inhibitor], O=C1NCCN(Cc2cccc(Oc3ccccc3)c2)C1CC(=O)N1CCCO1 (stereo not given) 16.4% [activator], CCCCC(=O)NC(=S)NNC(=O)c1ccc(OC)cc1 14.2% [activator], CC(C)(c1ccccc1)c1ccc(OCCCN2CCNCC2)cc1 7.34% [activator]

Reference: PubChem BioAssay AID1466 (National Center for Advancing Translational Sciences (NCATS), 2008)
